According to patent US20260193317A1, “COMBINATION THERAPY WITH ACTRIIB RECEPTOR VARIANTS AND GLP-1 AGONISTS” (35PHARMA Inc., priority 2023, published 2026):

T1: BMP-10 (Homo sapiens, UniProt O95393)
T1 sequence (O95393 317-424): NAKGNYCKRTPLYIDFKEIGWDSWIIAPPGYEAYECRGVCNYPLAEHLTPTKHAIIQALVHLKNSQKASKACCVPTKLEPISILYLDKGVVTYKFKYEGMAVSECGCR

T2: activin A (Homo sapiens, UniProt P08476)
T2 sequence (P08476 311-426): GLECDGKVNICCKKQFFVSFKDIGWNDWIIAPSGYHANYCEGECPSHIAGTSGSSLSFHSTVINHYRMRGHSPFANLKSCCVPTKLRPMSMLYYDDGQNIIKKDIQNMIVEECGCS


Legend:
TGFβ superfamily ligands = test: Neutralization profile across TGFβ superfamily ligands (HEK293 and HepG2 reporter assays, summary); format: cell-based, human; details: all ligands
Protocol: Potency testing by neutralization on cell-based assays. Characterization of the activin A, activin B, GDF-8, and GDF-11 inhibition potency (IC50) of the fusion proteins was performed using a cell-based reporter assay. TGFβ-reporter HEK293 cells were obtained from InvivoGen (San Diego, CA, cat. no. hkb-tgfb) and were maintained following the manufacturer's instructions. Briefly, cells were grown in high-glucose DMEM, containing 10% heat-inactivated FBS, 30 μg/mL blasticidin, 250 μg/mL hygromycin B, and 100 μg/mL zeocin (hereafter, “growth medium”). Once the cells reached 70-80% confluence, they were detached in growth medium by gently tapping on the flask. For all assays, cells were seeded in 96-well plates at a density of 20,000 cells per well in growth medium. Cells were left to attach for 10 minutes at room temperature (RT) prior to being transferred to a 37° C. incubator (5% CO2) overnight. The next day, treatments were prepared by combining the appropriate concentration of agent with activin A, activin B, GDF-8, or GDF-11 for 30 min at RT (shaking at 150 rpm). Treatments were conducted in high-glucose DMEM (serum-free and with no selection agents), and the final concentration of cytokine (ligand) was 0.3 nM. Growth medium was removed from the culture plates, and cells were treated with the appropriate mixes of fusion protein and cytokine. Treatment duration was for 18-22 h at 37° C. (5% CO2). All treatments were performed in technical duplicates and at least one or two independent experiments were conducted for each cytokine. At the end of the treatment period, supernatants were transferred to a new plate, and centrifuged at 300 RPM for 3 min. Forty microlitres of supernatant from each condition was transferred to a new plate, into which 180 μL of Quanti-Blue reagent (InvivoGen, cat. no. rep-qbs) was added. Quanti-Blue reagent was prepared following the manufacturer's instructions. Samples were incubated for 45 min at 37° C. At the end of the incubation, absorbance was read at 650 nm. The data were plotted in GraphPad Prism, which was used to calculate IC50 values as a non-linear regression.
Characterization of the BMP-9 and BMP-10 inhibition potency (IC50) of the fusion proteins was performed using a second cell-based reporter assay. Human hepatic HepG2 cells were transfected with a SEAP-encoding plasmid, in which SEAP expression is under the control of the murine Id1 promoter. A stable pool was generated from this transfection. Cells were grown in EMEM, containing 10% heat-inactivated FBS and 200 μg/mL zeocin (hereafter, “HepG2 growth medium”). […] For all assays, cells were seeded in 96-well plates at a confluence of 100,000 cells per well in HepG2 growth medium. Cells were left to attach for 10 minutes at RT prior to being transferred to a 37° C. incubator (5% CO2) overnight. The next day, treatments were prepared in EMEM (2.5% heat-inactivated FBS and with no selection agents) by combining the appropriate concentration of agent with BMP-9 or BMP-10 for 30 min at RT (shaking at 150 rpm). Treatments were conducted in EMEM (2.5% heat-inactivated FBS and with no selection agents), and the final concentration of BMP-9 and BMP-10 was 2 ng/mL and 40 ng/mL, respectively. HepG2 growth medium was removed from the culture plates, and cells were treated with the appropriate mixes of fusion protein and cytokine. Treatment duration was for 20-24 h at 37° C. (5% CO2). All treatments were performed in technical duplicates and at least one or two independent experiments were conducted for each cytokine. At the end of the treatment period, supernatants were transferred to a new plate, and centrifuged at 300 RPM for 3 min. Forty microlitres of supernatant from each condition was transferred to a new plate, onto which 180 μL of Quanti-Blue reagent was added. Quanti-Blue reagent was prepared following the manufacturer's instructions. Samples were incubated for 5-6 h with Quanti-Blue reagent at 37° C. […]

[1] = SEC-HPLC monomer and HMW content of purified fusion proteins; format: physicochemical; details: after Protein A purification
Excerpt: Given that protein aggregation can be indicative of reduced conformational stability and decreased activity, Size-Exclusion Chromatography-High Performance Liquid Chromatography (SEC-HPLC) was used to determine the purity of each ActRIIB-ECD construct. This method measured the percentage of intact monomeric species as well as the presence of aggregates and/or degradation products.
All proteins expressed efficiently in CHO and/or 293 cells and purification efficiency of each using Protein A affinity chromatography was similar.

BMP-10 = biological target: T1, BMP-10; test: BMP-reporter HepG2 cell-based assay: BMP-10 neutralization
Protocol: Characterization of the BMP-9 and BMP-10 inhibition potency (IC50) of the fusion proteins was performed using a second cell-based reporter assay. Human hepatic HepG2 cells were transfected with a SEAP-encoding plasmid, in which SEAP expression is under the control of the murine Id1 promoter. A stable pool was generated from this transfection. Cells were grown in EMEM, containing 10% heat-inactivated FBS and 200 μg/mL zeocin (hereafter, “HepG2 growth medium”). […] For all assays, cells were seeded in 96-well plates at a confluence of 100,000 cells per well in HepG2 growth medium. Cells were left to attach for 10 minutes at RT prior to being transferred to a 37° C. incubator (5% CO2) overnight. The next day, treatments were prepared in EMEM (2.5% heat-inactivated FBS and with no selection agents) by combining the appropriate concentration of agent with BMP-9 or BMP-10 for 30 min at RT (shaking at 150 rpm). Treatments were conducted in EMEM (2.5% heat-inactivated FBS and with no selection agents), and the final concentration of BMP-9 and BMP-10 was 2 ng/mL and 40 ng/mL, respectively. HepG2 growth medium was removed from the culture plates, and cells were treated with the appropriate mixes of fusion protein and cytokine. Treatment duration was for 20-24 h at 37° C. (5% CO2). All treatments were performed in technical duplicates and at least one or two independent experiments were conducted for each cytokine. At the end of the treatment period, supernatants were transferred to a new plate, and centrifuged at 300 RPM for 3 min. Forty microlitres of supernatant from each condition was transferred to a new plate, onto which 180 μL of Quanti-Blue reagent was added. Quanti-Blue reagent was prepared following the manufacturer's instructions. Samples were incubated for 5-6 h with Quanti-Blue reagent at 37° C. At the end of the incubation, absorbance was read at 650 nm. The data were plotted in GraphPad Prism, which was used to calculate IC50 values as a non-linear regression.

activin A = biological target: T2, activin A; test: Small-scale activin A ELISA with CHO supernatants; details: 1 μg/mL protein, 30 ng/mL activin A, loss of signal = binding
Protocol: Small-scale testing of ActRIIB-ECD fusion proteins. Additional investigation of a series of exemplary agents was performed using proteins expressed in CHO cells. Briefly, DNA encoding the ActRIIB-ECD-Fc fusion constructs was transfected in cells seeded in 12-well plates in a final volume of 1 ml. After 7 days, the supernatant was harvested, clarified, and the amount of expressed protein in each well was quantified using standard methods. The potency of each agent for inhibition of activin A, BMP-9 and BMP-10 was determined in three separate assays.
The next day, the plate was washed three times with buffer (Biolegend #421601). […] Expressed proteins in the supernatants described above were diluted to 2 μg/mL in assay diluent (0.5% BSA, 0.05% tween-20 in PBS), mixed 1:1 with recombinant human activin A (R&D #338-AC, 60 ng/mL, diluted in assay diluent). Complexes were immediately added to the 96-well plate in technical duplicates and incubated for 1 h at RT (concentration of expressed protein and activin A on the plate were 1 μg/mL and 30 ng/mL, respectively). […] In this assay, a loss of signal indicates binding of the exemplary agent to activin A, which prevents activin A binding to the anti-activin A antibody on the plate. Results are expressed as a % of the signal obtained with wild-type ActRIIB-Fc (P75).

inhibition potency on BMP-10 relative to P75 (BMP-10) | activin A binding, ELISA signal relative to P75 (activin A) | Molecule | impact of modifications in the Fc sequence on activin A, activin B, GDF-8, and GDF-11 potency (TGFβ superfamily ligands) | high molecular weight (HMW) content (SEC-HPLC) [1] | monomer content (SEC-HPLC) [1]
 |  | P1371: hActRIIB L33W, 14 aa linker, IgG1 Y-DL Fc; SEQ ID 230 (protein) ETRECIYYNANWELERTNQSGLERCEGEQDKRWHCYASWRNSSGTIELVKKGCWLDDFNCYDRQECVATEENPQVYFCCCEGNFCNERFTHLPEAGGPEVTYEPPPTGGGGSGGGGSGGGG[human IgG1 Fc with changes not spelt out] | comparable to P1229 | 1% | 99%
unchanged or modestly reduced | potent activin A binding | P751: hActRIIB L33Y, 14 aa linker, IgG1-DL Fc; SEQ ID 176 (protein) ETRECIYYNANWELERTNQSGLERCEGEQDKRYHCYASWRNSSGTIELVKKGCWLDDFNCYDRQECVATEENPQVYFCCCEGNFCNERFTHLPEAGGPEVTYEPPPTGGGGSGGGGSGG[human IgG1 Fc and a few adjoining residues not spelt out] |  | 2% | 98%
unchanged or modestly reduced | potent activin A binding | P1182: hActRIIB L33Y G27D, 14 aa linker, IgG1-DL Fc; SEQ ID 194 (protein) ETRECIYYNANWELERTNQSGLERCEDEQDKRYHCYASWRNSSGTIELVKKGCWLDDFNCYDRQECVATEENPQVYFCCCEGNFCNERFTHLPEAGGPEVTYEPPPTGGGGSGGGGSGG[human IgG1 Fc and a few adjoining residues not spelt out] |  | 2% | 97%
